According to paper PMC12820563, “FoxP3 forms a head-to-head dimer in vivo and stabilizes its multimerization on adjacent microsatellites”:
The other results are listed elsewhere or left out.

Target: T1, MBP-FoxP1dN (Mus musculus, UniProt P58462 326-579)
T1 sequence: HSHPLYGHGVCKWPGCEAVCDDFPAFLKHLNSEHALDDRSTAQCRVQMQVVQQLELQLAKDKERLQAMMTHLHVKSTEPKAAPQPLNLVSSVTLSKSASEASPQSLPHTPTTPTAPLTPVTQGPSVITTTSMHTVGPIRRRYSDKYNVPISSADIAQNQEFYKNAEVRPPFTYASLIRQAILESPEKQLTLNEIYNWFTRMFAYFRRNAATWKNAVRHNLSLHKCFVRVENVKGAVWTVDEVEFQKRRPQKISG
Assay: PD-seq (MBP pull-down with sequencing); 20 mM Tris-HCl pH 7.5, 100 mM NaCl, 1.5 mM MgCl2, 0.4 uM protein, 0.1 uM dsDNA library, 30 min, room temperature, amylose pull-down; high values mean tight binding
Conditions: protein: recombinant; tags: His6-MBP; chain copies: 2; dsDNA, one strand shown
Outline: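 Mouse FoxP3 or FoxP1 fragment lacking the N-terminus, His6-MBP-tagged and expressed in E. coli, was incubated at 0.4 µM with 0.1 µM Klenow-filled degenerate double-stranded DNA library for 30 min at room temperature in Tris pH 7.5 buffer with NaCl and MgCl2. Complexes captured on amylose resin were washed three times and their DNA sequenced on Illumina. Binding is reads-per-million enrichment of pull-down over input, replicates pooled.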

| Sequence | binding signal |
| --- | --- |
| GATGATTGTTCTCCCAGCTGATGAATTCTATATATCGAGTAAACAAATTTTCCTAATCTTTCTGTTCAAGCGCCATCTAC | 0.946 RPM ratio (pull-down/input) |
| GATGATTGTTCTCCCAGCTGATGAATTCAGCGATTCGAGTAAACAAATTTTCCTAATCTTTCTGTTCAAGCGCCATCTAC | 0.919 RPM ratio (pull-down/input) |
| GATGATTGTTCTCCCAGCTGATGAATTGTACACATCGAGTAAACAAATTTTCCTAATCTTTCTGTTCAAGCGCCATCTAC | 2.11 RPM ratio (pull-down/input) |
| GATGATTGTTCTCCCAGCTGATGAATTAACGAAATCGAGTAAACAAATTTTCCTAATCTTTCTGTTCAAGCGCCATCTAC | 1.16 RPM ratio (pull-down/input) |
| GATGATTGTTCTCCCAGCTGATGAATTGCTTGAGTCGAGTAAACAAATTTTCCTAATCTTTCTGTTCAAGCGCCATCTAC | 0.997 RPM ratio (pull-down/input) |
| GATGATTGTTCTCCCAGCTGATGAATTCCGATTTTCGAGTAAACAAATTTTCCTAATCTTTCTGTTCAAGCGCCATCTAC | 0.901 RPM ratio (pull-down/input) |
| GATGATTGTTCTCCCAGCTGATGAATTGGTTCAGTCGAGTAAACAAATTTTCCTAATCTTTCTGTTCAAGCGCCATCTAC | 0.952 RPM ratio (pull-down/input) |
| GATGATTGTTCTCCCAGCTGATGAATTTGGGGGTTCGAGTAAACAAATTTTCCTAATCTTTCTGTTCAAGCGCCATCTAC | 0.753 RPM ratio (pull-down/input) |
| GATGATTGTTCTCCCAGCTGATGAATTAAGACGGTCGAGTAAACAAATTTTCCTAATCTTTCTGTTCAAGCGCCATCTAC | 0.805 RPM ratio (pull-down/input) |
| GATGATTGTTCTCCCAGCTGATGAATTGTATAAATCGAGTAAACAAATTTTCCTAATCTTTCTGTTCAAGCGCCATCTAC | 1.24 RPM ratio (pull-down/input) |
| GATGATTGTTCTCCCAGCTGATGAATTTGCATGCTCGAGTAAACAAATTTTCCTAATCTTTCTGTTCAAGCGCCATCTAC | 1.09 RPM ratio (pull-down/input) |
| GATGATTGTTCTCCCAGCTGATGAATTGTCCGTATCGAGTAAACAAATTTTCCTAATCTTTCTGTTCAAGCGCCATCTAC | 0.944 RPM ratio (pull-down/input) |
| GATGATTGTTCTCCCAGCTGATGAATTTTAATGGTCGAGTAAACAAATTTTCCTAATCTTTCTGTTCAAGCGCCATCTAC | 0.9 RPM ratio (pull-down/input) |
| GATGATTGTTCTCCCAGCTGATGAATTGGGGAGATCGAGTAAACAAATTTTCCTAATCTTTCTGTTCAAGCGCCATCTAC | 0.797 RPM ratio (pull-down/input) |
| GATGATTGTTCTCCCAGCTGATGAATTGTATGACTCGAGTAAACAAATTTTCCTAATCTTTCTGTTCAAGCGCCATCTAC | 0.974 RPM ratio (pull-down/input) |
| GATGATTGTTCTCCCAGCTGATGAATTTATACGATCGAGTAAACAAATTTTCCTAATCTTTCTGTTCAAGCGCCATCTAC | 1.12 RPM ratio (pull-down/input) |
| GATGATTGTTCTCCCAGCTGATGAATTGGCTTAGTCGAGTAAACAAATTTTCCTAATCTTTCTGTTCAAGCGCCATCTAC | 0.844 RPM ratio (pull-down/input) |
| GATGATTGTTCTCCCAGCTGATGAATTCGACGTATCGAGTAAACAAATTTTCCTAATCTTTCTGTTCAAGCGCCATCTAC | 1.03 RPM ratio (pull-down/input) |
| GATGATTGTTCTCCCAGCTGATGAATTCTTTGAATCGAGTAAACAAATTTTCCTAATCTTTCTGTTCAAGCGCCATCTAC | 0.931 RPM ratio (pull-down/input) |
| GATGATTGTTCTCCCAGCTGATGAATTTACTGCCTCGAGTAAACAAATTTTCCTAATCTTTCTGTTCAAGCGCCATCTAC | 1.06 RPM ratio (pull-down/input) |

| Sequence | binding signal |
| --- | --- |
| GATGATTGTTCTCCCAGCTGATGAATTCTATCTGTCGAGTAAACAAATTTTCCTAATCTTTCTGTTCAAGCGCCATCTAC | 0.875 RPM ratio (pull-down/input) |
| GATGATTGTTCTCCCAGCTGATGAATTAAGCGAGTCGAGTAAACAAATTTTCCTAATCTTTCTGTTCAAGCGCCATCTAC | 0.873 RPM ratio (pull-down/input) |
| GATGATTGTTCTCCCAGCTGATGAATTCGTTCGCTCGAGTAAACAAATTTTCCTAATCTTTCTGTTCAAGCGCCATCTAC | 0.836 RPM ratio (pull-down/input) |
| GATGATTGTTCTCCCAGCTGATGAATTGAATTCATCGAGTAAACAAATTTTCCTAATCTTTCTGTTCAAGCGCCATCTAC | 1.02 RPM ratio (pull-down/input) |
| GATGATTGTTCTCCCAGCTGATGAATTGTTTAGCTCGAGTAAACAAATTTTCCTAATCTTTCTGTTCAAGCGCCATCTAC | 1.89 RPM ratio (pull-down/input) |
| GATGATTGTTCTCCCAGCTGATGAATTTCTGTATTCGAGTAAACAAATTTTCCTAATCTTTCTGTTCAAGCGCCATCTAC | 1.3 RPM ratio (pull-down/input) |
| GATGATTGTTCTCCCAGCTGATGAATTTATATGTTCGAGTAAACAAATTTTCCTAATCTTTCTGTTCAAGCGCCATCTAC | 1.27 RPM ratio (pull-down/input) |
| GATGATTGTTCTCCCAGCTGATGAATTAATGGTCTCGAGTAAACAAATTTTCCTAATCTTTCTGTTCAAGCGCCATCTAC | 0.879 RPM ratio (pull-down/input) |
| GATGATTGTTCTCCCAGCTGATGAATTCAGGCCTTCGAGTAAACAAATTTTCCTAATCTTTCTGTTCAAGCGCCATCTAC | 0.84 RPM ratio (pull-down/input) |
| GATGATTGTTCTCCCAGCTGATGAATTCATAAATTCGAGTAAACAAATTTTCCTAATCTTTCTGTTCAAGCGCCATCTAC | 1 RPM ratio (pull-down/input) |
| GATGATTGTTCTCCCAGCTGATGAATTTCTATGATCGAGTAAACAAATTTTCCTAATCTTTCTGTTCAAGCGCCATCTAC | 0.89 RPM ratio (pull-down/input) |
| GATGATTGTTCTCCCAGCTGATGAATTCTGTAATTCGAGTAAACAAATTTTCCTAATCTTTCTGTTCAAGCGCCATCTAC | 0.951 RPM ratio (pull-down/input) |
| GATGATTGTTCTCCCAGCTGATGAATTAGACGAGTCGAGTAAACAAATTTTCCTAATCTTTCTGTTCAAGCGCCATCTAC | 0.902 RPM ratio (pull-down/input) |
| GATGATTGTTCTCCCAGCTGATGAATTTGGCGCATCGAGTAAACAAATTTTCCTAATCTTTCTGTTCAAGCGCCATCTAC | 1.19 RPM ratio (pull-down/input) |
| GATGATTGTTCTCCCAGCTGATGAATTAGGCGAGTCGAGTAAACAAATTTTCCTAATCTTTCTGTTCAAGCGCCATCTAC | 0.822 RPM ratio (pull-down/input) |
| GATGATTGTTCTCCCAGCTGATGAATTGCCTGTATCGAGTAAACAAATTTTCCTAATCTTTCTGTTCAAGCGCCATCTAC | 1.11 RPM ratio (pull-down/input) |
| GATGATTGTTCTCCCAGCTGATGAATTTATCAAGTCGAGTAAACAAATTTTCCTAATCTTTCTGTTCAAGCGCCATCTAC | 0.966 RPM ratio (pull-down/input) |
| GATGATTGTTCTCCCAGCTGATGAATTATACACTTCGAGTAAACAAATTTTCCTAATCTTTCTGTTCAAGCGCCATCTAC | 1.15 RPM ratio (pull-down/input) |
| GATGATTGTTCTCCCAGCTGATGAATTAACCTCATCGAGTAAACAAATTTTCCTAATCTTTCTGTTCAAGCGCCATCTAC | 0.942 RPM ratio (pull-down/input) |
| GATGATTGTTCTCCCAGCTGATGAATTGTACGAGTCGAGTAAACAAATTTTCCTAATCTTTCTGTTCAAGCGCCATCTAC | 0.927 RPM ratio (pull-down/input) |
